Hit rate of the full screen: of about 310,000 compounds, about 14,000 (4.5%) showed an effect of 50% or more. The effect is printed as a negative number. The list shows a part of the results.
Biological target: human ether-à-go-go-related gene (hERG) potassium channel (human, UniProt Q12809)
Test: primary screen, population patch clamp on CHO cells stably expressing hERG
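Also: peak tail current of the secondary pulse compared with the same well before compound.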

Sequence of human ether-à-go-go-related gene (hERG) potassium channel (Q12809 whole entry, looked up): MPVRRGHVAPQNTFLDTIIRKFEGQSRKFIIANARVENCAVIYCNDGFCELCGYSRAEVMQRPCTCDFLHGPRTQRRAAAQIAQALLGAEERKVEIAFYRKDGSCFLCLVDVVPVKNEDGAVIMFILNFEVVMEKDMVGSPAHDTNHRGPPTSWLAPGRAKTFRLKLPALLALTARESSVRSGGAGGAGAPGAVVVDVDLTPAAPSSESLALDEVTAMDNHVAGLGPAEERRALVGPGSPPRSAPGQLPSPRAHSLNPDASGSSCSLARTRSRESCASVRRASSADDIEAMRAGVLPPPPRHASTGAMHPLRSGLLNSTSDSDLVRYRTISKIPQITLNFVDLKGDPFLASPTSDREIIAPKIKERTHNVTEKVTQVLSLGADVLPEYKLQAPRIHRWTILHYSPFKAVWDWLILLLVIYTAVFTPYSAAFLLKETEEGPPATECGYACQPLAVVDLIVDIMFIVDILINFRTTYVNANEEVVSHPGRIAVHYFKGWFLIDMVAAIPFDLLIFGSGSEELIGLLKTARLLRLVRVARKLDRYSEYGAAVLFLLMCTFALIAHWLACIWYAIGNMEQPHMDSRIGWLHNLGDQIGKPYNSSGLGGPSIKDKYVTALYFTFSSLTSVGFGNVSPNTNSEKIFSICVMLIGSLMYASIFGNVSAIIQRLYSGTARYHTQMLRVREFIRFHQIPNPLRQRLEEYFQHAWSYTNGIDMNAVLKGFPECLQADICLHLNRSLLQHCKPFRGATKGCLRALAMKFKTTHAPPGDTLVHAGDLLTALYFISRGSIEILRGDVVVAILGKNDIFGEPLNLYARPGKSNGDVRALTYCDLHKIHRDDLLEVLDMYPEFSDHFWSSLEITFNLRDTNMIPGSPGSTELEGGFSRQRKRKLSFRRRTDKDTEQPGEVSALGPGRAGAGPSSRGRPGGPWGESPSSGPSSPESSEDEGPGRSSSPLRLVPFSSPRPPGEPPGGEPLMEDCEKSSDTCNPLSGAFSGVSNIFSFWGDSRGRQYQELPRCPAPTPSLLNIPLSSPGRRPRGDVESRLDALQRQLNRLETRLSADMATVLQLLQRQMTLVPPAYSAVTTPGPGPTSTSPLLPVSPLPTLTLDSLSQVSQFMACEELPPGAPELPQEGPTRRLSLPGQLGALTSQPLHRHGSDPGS

Row | Compound | hERG current change (%, negative = inhibition) at 10uM [%]
1 | CCOC(=O)C(C)(C)Sc1nc2c(cnn2-c2ccc(C)cc2)c(=O)[nH]1 | -1.92
2 | O=C(NC(O)C(=O)c1ccc(F)cc1)c1ccc(F)cc1 (centres unmarked) | -2.27
3 | CCCCC(=O)Nc1ccc(NC(=O)C2CC2)cn1 | 6.91
4 | CN(CC(=O)NCCN1CCN(Cc2ccccc2)CC1)S(=O)(=O)c1cccc2nsnc12 | -25.4
5 | CCOc1cc(/C=N/O)cc(Br)c1OCC(=O)NCc1ccccc1 | 1.7
6 | COc1ccc(N2CCN(C(=S)Nc3ccc(C)cc3)CC2)cc1 | 11.3
7 | Cc1ccc(/C=C/C(=O)NC2CCCCCCC2)o1 | -11.3
8 | CCO/N=C(/C)c1c(O)c(C)c(-c2ccccc2)n(-c2ccccc2)c1=O | 1.08
9 | Cc1ccc(/C(O)=C2/C(=O)C(=O)N(c3ccccn3)C2c2ccc([N+](=O)[O-])cc2)cc1 (centres unmarked) | 8.83
10 | CC(C)NC(=O)c1ccc2c3n(nc2c1)-c1ccc(Cl)cc1CO3 | 5.99
11 | COc1ccc(S(=O)(=O)n2oc(=O)cc2-c2ccccc2)cc1OC | -11.3
12 | CCOC(=O)C(C)Sc1nnc(NC(=O)c2ccc3c(c2)OCO3)s1 (centres unmarked) | 11.8
13 | Cc1oc(-c2ccc(Cl)cc2)cc1-c1nn2c(-c3ccoc3C)nnc2s1 | -5.72
14 | CCOC(=O)C1=C(C)N(CCCC(=O)O)C(=O)NC1c1cc2ccccc2c2ccccc12 (centres unmarked) | 1.7
15 | Br.CCCCCCn1ccc(=N)cc1 | 1.66
16 | COc1ccc(Nc2nc(-c3cccnc3)cs2)c(OC)c1 | -11.7
17 | Cc1noc(C)c1S(=O)(=O)NCc1ccc(CN(C)C)cc1.Cl | 6.09
18 | CCN(CCCNC(=O)C1CCC(=O)N1Cc1ccc(F)cc1)c1cccc(C)c1 (centres unmarked) | -18.3
19 | CN(Cc1nc(-c2ccncc2)no1)S(=O)(=O)c1ccc(Cl)cc1 | -55.5

Row | Compound | hERG current change (%, negative = inhibition) at 10uM [%]
20 | CCOc1ccccc1OCCN1CCC(Cc2ccccc2)CC1.O=C(O)C(=O)O | -67.4
21 | Cc1cccc(C(=O)Nc2cccc(C(=O)N/N=C/c3ccc4c(c3)OCO4)c2)c1 | -2.89
22 | NC(=O)C1CCN(c2ccc(C(F)(F)F)cc2[N+](=O)[O-])CC1 | -20.1
23 | O=C(Nc1cccc(C(F)(F)F)c1)C(SCCO)c1ccccc1 (centres unmarked) | -4.8
24 | CN(C)C(=O)NC(NC(=S)Nc1ccccc1)C(Cl)(Cl)Cl (centres unmarked) | 0.0812
25 | CC(=O)NC1(C2CCCCC2=O)CCCCC1 (centres unmarked) | 13.7
26 | CS(=O)(=O)N(Cc1ccc(C(=O)NC2CCCCC2O)cc1)c1ccccc1 (centres unmarked) | -0.463
27 | O=C(Nc1ccc(Cl)cc1F)C1CC1 | -1.77
28 | CCOC(=O)N1CCN(C(=O)C2CCN(C(=O)c3cc(OC)cc(OC)c3)CC2)CC1 | -13.5
29 | C[C@H](NC(=O)CCn1nnc2ccccc2c1=O)C(=O)O | 1.71
30 | Cc1cc(Br)ccc1OCC(=O)NC1CCCC1 | -1.99
31 | O=C(CSc1nnnn1-c1ccc(O)cc1)Nc1ccc(N2CCOCC2)c(Cl)c1 | -1.58
32 | CCN(CCCNC(=O)C1c2ccccc2C(=O)N(CCOC)C1c1ccc(F)cc1)Cc1ccccc1 (centres unmarked) | -35
33 | Cc1c(C=O)c2ccccc2n1CCOc1ccccc1 | 1.61
34 | CC(Sc1ncn[nH]1)C(=O)c1c(N)n(C)c(=O)n(C)c1=O (centres unmarked) | 10.9
35 | O=C(Cc1ccc(F)cc1)N1CCN=C1SCc1ccc([N+](=O)[O-])cc1 | -47.3
36 | COc1ccc(Cl)cc1NC(=O)CCS(=O)(=O)c1ccc(C)cc1 | 3.76
37 | O=C(NCC1CCCO1)C(c1cccs1)N(C(=O)c1ccc(CN2CCOCC2)o1)c1ccc(Cl)cc1 (centres unmarked) | 6.38
38 | Cc1cc2nc3n(c2cc1C)CC1CC(C(=O)NCc2ccco2)N(C)C31 (centres unmarked) | -29

Row | Compound | hERG current change (%, negative = inhibition) at 10uM [%]
39 | Cn1c(=O)c2c(ncn2CC(=O)OCC(=O)c2ccc(F)c(F)c2)n(C)c1=O | -25.1
40 | CCN(CC)S(=O)(=O)c1ccc(C(=O)Nc2ccc3c(c2)OCCO3)cc1 | -13.7
41 | COc1ccc2c(CC(=O)OCC(=O)Nc3ccc(S(N)(=O)=O)cc3)coc2c1 | 6.45
42 | CCOc1ccc(OCCCC(=O)NCCc2ccc(OC)cc2)cc1 | 25.8
43 | CCCn1c(=O)c(C(=O)Nc2cccc(C)n2)c(O)c2ccccc21 | 25
44 | CCN(CC)CCCN1C(=O)C(O)=C(C(=O)c2ccc(C)o2)C1c1ccc(C)o1 (centres unmarked) | 19
45 | Nc1ccc(NC(=O)c2ccc(C(=O)Nc3ccc(N)cc3)cc2)cc1 | 6.26
46 | O=C(COC(=O)/C=C/c1cccc(F)c1)Nc1ccccc1 | 16.2
47 | CC(CCc1ccco1)NC(=O)Cn1ncc2c1-c1ccccc1OC2 (centres unmarked) | -1.05
48 | CN(Cc1cccs1)c1nc(-c2cccnc2)nc2ccccc12 | -53.5
49 | Cc1ccc(C)c(NC(=O)CSc2nnc(C)c(=O)n2N)c1 | 6.12
50 | CN1CCN(C(=O)c2cccc(S(=O)(=O)N3CCCC3)c2)CC1.Cl | 16.9
51 | Cc1ccc(-c2nn(CC(=O)NCc3ccccn3)c(=O)c3ccccc23)cc1S(=O)(=O)N(C)C | -49.3
52 | CS(=O)(=O)NCCSc1nnnn1-c1ccccc1 | 13
53 | CCOC(=O)c1nn(-c2ccc(F)cc2)c(=O)cc1OCC(=O)Nc1ccc(F)c(F)c1 | 12
54 | O=C(NNc1ccccc1C(F)(F)F)c1sccc1Br | 5.65
55 | Cc1cccc(NC(=S)N(Cc2cccc(Br)c2)CC2CCC(C(=O)O)CC2)c1 (centres unmarked) | -4.28
56 | C[N+]1(CN2C(=O)C3C4C=CC(C4)C3C2=O)CCCCC1.[I-] (centres unmarked) | 17.4
